# Test results taken from the supplement of paper PMC3334620.
# The full ranking holds about 33,000 sequences; the median of “E-score (-0.5 to 0.5)” is about -0.035, and the highest 2% start at about 0.35. This is one part of the list.
# Molecular target: T1, Pdr3 (UniProt P33200)
# T1 sequence: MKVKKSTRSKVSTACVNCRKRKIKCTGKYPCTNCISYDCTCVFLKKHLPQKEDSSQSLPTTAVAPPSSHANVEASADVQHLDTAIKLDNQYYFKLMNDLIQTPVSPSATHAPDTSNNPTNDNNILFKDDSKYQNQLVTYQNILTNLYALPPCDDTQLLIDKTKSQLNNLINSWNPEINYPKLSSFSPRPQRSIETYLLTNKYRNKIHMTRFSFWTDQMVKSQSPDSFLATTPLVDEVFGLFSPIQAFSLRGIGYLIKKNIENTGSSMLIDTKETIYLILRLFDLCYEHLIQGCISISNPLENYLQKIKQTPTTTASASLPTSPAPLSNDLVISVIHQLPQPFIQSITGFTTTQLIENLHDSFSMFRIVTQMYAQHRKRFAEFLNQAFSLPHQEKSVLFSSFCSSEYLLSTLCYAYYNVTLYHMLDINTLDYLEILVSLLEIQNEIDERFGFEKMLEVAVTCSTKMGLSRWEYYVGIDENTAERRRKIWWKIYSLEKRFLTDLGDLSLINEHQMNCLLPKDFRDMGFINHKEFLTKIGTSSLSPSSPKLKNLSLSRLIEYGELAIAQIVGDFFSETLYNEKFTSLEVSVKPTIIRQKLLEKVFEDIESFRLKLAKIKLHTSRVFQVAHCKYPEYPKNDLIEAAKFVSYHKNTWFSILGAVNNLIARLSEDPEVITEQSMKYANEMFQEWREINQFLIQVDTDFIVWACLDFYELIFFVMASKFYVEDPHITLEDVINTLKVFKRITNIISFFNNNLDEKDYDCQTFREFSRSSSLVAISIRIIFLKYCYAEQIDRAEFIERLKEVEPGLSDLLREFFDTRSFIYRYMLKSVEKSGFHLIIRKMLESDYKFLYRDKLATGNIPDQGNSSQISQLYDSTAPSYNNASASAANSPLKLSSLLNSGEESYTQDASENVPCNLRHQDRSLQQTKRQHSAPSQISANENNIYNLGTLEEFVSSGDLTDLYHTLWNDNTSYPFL
# Assay: PBM E-score (8-mer binding enrichment) (E-score (-0.5 to 0.5)); higher = stronger / more preferred TF binding; most listed sequences are background and not binding sites
# Details: protein concentration: 200 nM; construct: GST-full length
# How it was run: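 Universal all-10-mer Agilent arrays, double-stranded by primer extension on fresh or once-stripped slides, were probed with about 100-200 nM GST-tagged yeast transcription factors made by PURExpress. Fluorescent anti-GST detected bound protein, and masliner normalised the scans. E-scores from the Universal PBM Analysis Suite were given to each ungapped eight-base word pooled with its reverse complement.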
row,Sequence,PBM E-score
1,AGAACTGC,-0.0982
2,GACAGTTA,0.0178
3,AGATCACG,0.0989
4,TCCGCGAA,0.314
5,AATTGTAG,-0.156
6,CCGCGAAG,0.267
7,AAAAGCGG,0.119
8,CGACGCCA,0.0156
9,AGTGTCCA,-0.122
10,ACCTCGAT,0.165
11,AAGACAGG,0.0139
12,GAGAGTCC,-0.0816
13,CTTTATGA,-0.299
14,CACGTTTA,-0.189
15,CTCACCTA,-0.17
16,GGTGTGCA,-0.178
17,TACTCCTA,-0.342
18,GTGAACCA,-0.0802
19,CTAGTTCC,0.31
20,CTCCAAAC,0.0388
21,CCGGTCCA,0.0798
22,AGCTTAGG,-0.0685
23,ACCTAGAC,0.00523
24,CAGGTCCG,0.257
25,AGTAGGTC,-0.0773

row,Sequence,PBM E-score
1,AGGTCCCA,-0.211
2,CCAGGTGC,0.00594
3,CGGGGGAA,0.276
4,AGTAGGAA,-0.31
5,CTTAATCC,0.0482
6,CATCGGTA,0.0816
7,GCAGTCCC,0.0813
8,GGGGTGAA,-0.0358
9,GTTCTTAA,0.0247
10,CTTTCTGC,-0.0975
11,GTCATAGA,-0.0724
12,CCGTGAAG,0.0621
13,ATTGGTGG,-0.0235
14,ACGTACAT,-0.0677
15,ATTGCTCG,0.0872
16,CCGTCTAC,0.12
17,CTTTCAAA,0.0688
18,CACGCCTC,-0.177
19,CCGAGGCA,0.117
20,AAACGGAT,0.377
21,GCCGAATA,0.234
22,GCACTTAA,-0.0886
23,ACCTGACT,-0.131
24,AACTATAG,-0.138
25,GGTGCACC,-0.0384

row,Sequence,PBM E-score
1,CAGAATCA,-0.0974
2,CTCGACCA,-0.185
3,CCATGCGC,0.0856
4,AATTGGAC,-0.00087
5,ACGCAGTC,-0.282
6,GGCTACGA,-0.168
7,AGGACCCA,-0.256
8,CATCATCC,-0.015
9,AATGTACA,0.0279
10,CCTAGTAA,-0.0473
11,CGTTAGTC,-0.0535
12,ATCTCCCG,0.23
13,ACTAGGAA,-0.168
14,CCGCCGAC,0.146
15,ATCGAATC,0.1
16,GCAAATGC,-0.19
17,AATTAGGT,0.00648
18,CGGACGTA,0.0483
19,AGCGACCA,-0.0054
20,CTCTGAAA,-0.0648
21,ATTAAGCC,0.0878
22,AAGATTCT,-0.165
23,GGATGTAC,-0.015
24,GTTCACGA,0.0586
25,CTCTACAG,-0.224

row,Sequence,PBM E-score
1,CAGTTCTA,-0.074
2,ATGGCTAA,-0.132
3,ATAGCTAA,-0.088
4,AAACGCGG,0.245
5,CTACTTTA,-0.11
6,CTCGTGTC,-0.13
7,TGAGTCAA,-0.11
8,AGCCAGCA,-0.229
9,AACGGTAC,0.146
10,AATGATCA,-0.153
11,GCATTCGC,-0.125
12,CATCTATA,-0.0337
13,CCGCCCGG,0.407
14,GAGCAGTA,0.0657
15,GCCTCAGC,-0.0249
16,AATTATGC,0.0699
17,ACTGTTCT,-0.129
18,CATTAACC,0.0602
19,ATCAGTCG,-0.0314
20,ATGAATTA,-0.0872
21,CCTACGTC,-0.172
22,AAAACCAA,-0.0135
23,ATTCACTC,-0.0568
24,CATTCCCG,0.274
25,ATACTTGG,-0.157

row,Sequence,PBM E-score
1,GGGGAGTA,-0.092
2,AATGGGTG,0.213
3,ATCTATGG,-0.0734
4,GTGTCAAA,-0.0534
5,AAAGGCCG,0.196
6,ACGAGACA,-0.0207
7,ATTGGCTC,-0.0435
8,CGAAGGTC,-0.0506
9,ATCGGGGG,0.0408
10,ACGCCCTC,-0.0801
11,GAATACAA,0.228
12,AGCGAAAT,0.0309
13,GCGAAAGA,-0.0453
14,GACAAAAA,0.0605
15,CGTTGCGC,0.0971
16,CAGTGATA,-0.0345
17,AATTTAAG,-0.129
18,AATTCCAG,0.0797
19,CATCCTCA,-0.105
20,CCATTGGG,-0.253
21,GGCAGTAC,-0.114
22,ATTTCAAG,-0.201
23,AAGAGAGA,-0.212
24,GCCGGTAC,0.0986
25,GTATACAA,-0.0525

row,Sequence,PBM E-score
1,GCGCATCC,0.0589
2,ACATGTCC,0.0604
3,AAAAGCTT,-0.218
4,CAGTACAA,-0.159
5,GTACGGGA,0.217
6,AATCTCAC,-0.222
7,GCCGGTAA,0.293
8,CCGGCCTC,0.156
9,CATCTCGA,-0.103
10,ATAGTTCC,0.308
11,AACTAACT,-0.0733
12,GCAGAACC,-0.0949
13,CAAATTCG,0.169
14,TCAAAAGA,-0.0504
15,ACCTGCGA,-0.146
16,CTGCTCAC,-0.295
17,GAACTGTA,0.129
18,CTGTCAAC,-0.0859
19,GGCATCAA,-0.169
20,CAAATAGG,-0.103
21,CCATCACG,-0.0266
22,ACACGACC,0.00705
23,GTAGTGCA,-0.00877
24,AGACTTGG,-0.24
25,AATCAGCA,-0.137

row,Sequence,PBM E-score
1,ACAACATA,0.0189
2,GACGACCA,-0.115
3,AATTTGTA,-0.0191
4,TAGCTCGA,-0.025
5,CCTTCTGC,-0.119
6,AATTCGCG,0.138
7,AGGATAAA,-0.128
8,ACCAACGC,0.0347
9,AGGAAACA,-0.0166
10,CTGATGGC,-0.00783
11,ATTGTTAG,-0.0868
12,GTATTCTA,-0.0358
13,CAATCTGC,-0.132
14,GATGAGTA,-0.00761
15,CAGCGTCC,0.0532
16,CAAACACC,0.0018
17,ATTCCGGC,0.448
18,AACGCTCA,-0.208
19,CCACTTAG,-0.149
20,CCTGCCCC,-0.129
21,CTATTATC,0.0421
22,CTCTAAGA,-0.0138
